From PubChem BioAssay AID485281 (National Center for Advancing Translational Sciences (NCATS), 2010)
Out of some 350,000 compounds screened, about 260 (0.074%) were called active. Inconclusive results, whose numbers are uncertain, are shown with a selection of clear calls. Calls come from the whole dose curve; as a rule, active = well fitted inhibition curve with a large enough effect; inconclusive = small, poorly fitted or top-dose-only effect; inactive = no such curve, though single readings can be large or run the other way. Potencies of inconclusive entries are doubtful fits and often do not repeat.

Target: Ferritin light chain (Equus caballus) (UniProt P02791)
Experiment: qHTS Assay for Identification of Novel General Anesthetics; note: nearly all actives have a fitted effect of over 20% in size
Settings: apoferritin/1-aminoanthracene competitive binding, fluorescence; activity change, negative = displacement: at 77.5 µM (top of the series)
Method in brief: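 Horse-spleen apoferritin (10 uM) in 50% saturated 1-aminoanthracene in PBS was incubated 10 min at room temperature with compound. Fluorescence (ex 380, em 535 nm) was normalized to free and bound 1-AMA, with concentration-response fitted by a four-parameter Hill equation.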
% is set by controls: 0 for no effect and ±100 for the full control effect; potency is the fitted concentration of half-maximal effect; tags give direction and shape of the fitted curve.

UniProt P02791, sequence (P02791 whole entry, looked up): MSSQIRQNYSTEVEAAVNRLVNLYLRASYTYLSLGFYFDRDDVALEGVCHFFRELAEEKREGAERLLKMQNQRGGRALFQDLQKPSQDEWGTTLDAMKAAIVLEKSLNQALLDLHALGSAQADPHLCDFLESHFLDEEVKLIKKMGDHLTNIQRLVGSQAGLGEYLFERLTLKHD

SMILES	Potency	activity change, negative = displacement
CC(C)(C)c1ccc(C(=O)CCCSC2=C(C#N)C(c3ccco3)C3=C(CCCC3=O)N2)cc1 (centres undefined)	inconclusive: 5.01 µM [inhibitor, full curve]	–
CCCS(=O)(=O)c1c(S(=O)(=O)CCC)c2cnccn2c1C(=O)c1ccc(F)cc1	inconclusive: 28.2 µM [inhibitor, single point]	–
CN(NC(=O)NN)c1ncc(C(F)(F)F)cc1Cl	inconclusive: 35.5 µM [inhibitor, single point]	–
CCCCN(CC)C(=O)c1cccc(Cl)c1	inconclusive: 28.2 µM [inhibitor, single point]	–
CCc1ccc(Nc2nnc(SCc3cc(=O)n4ccsc4n3)s2)cc1	inconclusive: 44.7 µM [inhibitor, partial curve]	–
Oc1ccc(N=Nc2nccs2)c(O)c1	inconclusive: 31.6 µM [inhibitor, partial curve]	–
CCOC(=O)c1ccc(N2C(=O)c3n[nH]c(-c4ccco4)c3C2c2ccc(C(=O)OC)cc2)cc1 (centres undefined)	inconclusive: 3.98 µM [inhibitor, full curve]	–
CCN(CC(O)CON=C1c2ccccc2-c2ccccc21)S(=O)(=O)c1ccc(C)cc1 (centres undefined)	inconclusive: 14.1 µM [inhibitor, partial curve]	–
Nc1cc(N)nc(SCCOc2ccccc2)n1	inconclusive: 25.1 µM [inhibitor, partial curve]	–
O=C1/C(=C\c2ccccn2)SC(=S)N1Nc1ncc(C(F)(F)F)cc1Cl	inconclusive: 22.4 µM [inhibitor, partial curve]	–
COC(=O)c1ccc2c(=O)n(CCCCCC(=O)NCCc3ccccc3)c(=O)[nH]c2c1	–	inactive: -3.39%
Cc1nn(CC(=O)NC(C)CCc2ccccc2)c(=O)c2nn(-c3ccccc3)c(C)c12 (centres undefined)	inconclusive: 39.8 µM [inhibitor, single point]	–
C#CCOC(=O)CCCNc1ccc([N+](=O)[O-])cc1[N+](=O)[O-]	inconclusive: 35.5 µM [inhibitor, partial curve]	–
CCCCCCCC(=O)N/N=C/c1ccncc1	inconclusive: 35.5 µM [inhibitor, partial curve]	–
O=c1cc(-c2ccc(C3CCCCC3)cc2)[nH][nH]1	inconclusive: 25.1 µM [inhibitor, partial curve]	–
COc1ccc([N+](=O)[O-])cc1NC(=O)CSc1ccccc1	inconclusive: 17.8 µM [inhibitor, partial curve]	–
CCC(Sc1nc(C)cc(=O)[nH]1)C(=O)Nc1nc2c(s1)CCCC2 (centres undefined)	inconclusive: 15.8 µM [inhibitor, partial curve]	–
CCC1Sc2ccccc2N(CC(=O)NCc2ccc(C)cc2)C1=O (centres undefined)	–	inactive: -6.18%
CCOc1ccc(-n2c(C)cc(/C=C3/C(=N)N4C(=NC3=O)SN=C4S(C)(=O)=O)c2C)cc1	–	inactive: -7.61%
O=C(O)CN(CC(=O)O)Cc1cc2c(-c3ccccc3C(=O)O)c3cc(CN(CC(=O)O)CC(=O)O)c(=O)cc-3oc2cc1O	–	inactive: 336%
Cc1ccc(C)c(NC(=S)NNC(=O)c2csc3c2CCCC3)c1	inconclusive: 15.8 µM [inhibitor, partial curve]	–
CCc1ccccc1S(=O)(=O)Cc1ccc(C(=O)NCc2ccc3c(c2)OCO3)o1	inconclusive: 44.7 µM [inhibitor, single point]	–

SMILES	Potency	activity change, negative = displacement
O=C(CCNc1cccc(Cl)c1)c1ccco1	inconclusive: 15.8 µM [inhibitor, partial curve]	–
NNC(=O)CNc1cccc(Br)c1	inconclusive: 50.1 µM [inhibitor, single point]	–
O=C(NC1=NCCS1)c1ccc(Cl)c(S(=O)(=O)N2CCCCC2)c1	inconclusive: 31.6 µM [inhibitor, partial curve]	–
CCC(C)NC(=O)c1cc(Sc2cccc(Cl)c2)nc2ccccc12 (centres undefined)	inconclusive: 5.01 µM [inhibitor, full curve, poor fit]	–
CC1(C)CC(=O)C2=C(C1)NC(=S)C(C#N)C21CCCCC1 (centres undefined)	–	inactive: -2.01%
C=CCc1cc(C=O)cc(OC)c1OCc1c(Cl)cccc1Cl	inconclusive: 11.2 µM [inhibitor, partial curve]	–
Cc1ccc(Cc2nc3ccccc3nc2SCC(=O)N2CCC(C)CC2)cc1	inconclusive: 31.6 µM [inhibitor, single point]	–
Cc1cc(C)c(COc2ccc(/C=N/n3c(C)n[nH]c3=S)cc2)c(C)c1	inconclusive: 50.1 µM [inhibitor, single point]	–
O=C(COc1ccc(S(=O)(=O)N2CCc3ccccc32)cc1Cl)NCc1ccccn1	–	inactive: -3.92%
Cc1cc(C(=O)COC(=O)C2=NNC(=O)CC2)c(C)n1CCc1ccccc1	inconclusive: 31.6 µM [inhibitor, partial curve]	–
O=C(CC(=O)c1ccccc1)c1ccccc1	–	inactive: -13.8%
CCOc1ccc(-c2cc(NC(=O)c3ccccc3)c(C(=O)OC)s2)cc1	–	inactive: -1.86%
CSc1ccc(CNc2ccc(C)c(C)c2)cc1	inconclusive: 10 µM [inhibitor, partial curve]	–
O=C1Nc2ccc([N+](=O)[O-])cc2OC1CCN1CCN(c2ccccc2)CC1 (centres undefined)	inconclusive: 15.8 µM [inhibitor, partial curve]	–
O=C(OCc1ccccc1Cl)c1cccnc1Cl	inconclusive: 25.1 µM [inhibitor, partial curve]	–
COc1ccc(N2CCN(C(=O)CN(c3ccc(Br)cc3)S(C)(=O)=O)CC2)cc1	inconclusive: 25.1 µM [inhibitor, single point]	–
O=C(Nc1cccc([N+](=O)[O-])c1)c1cc2ccccc2cc1O	–	inactive: 5.58%
Cc1ccc(Cn2c(=O)n(-c3cccc(C(F)(F)F)c3)c(=O)c3c(C)c(C)sc32)c(C)c1	–	inactive: -0.868%
CCC(=O)NC[C@H](Cc1ccc(OCCc2nc(-c3ccccc3)oc2C)cc1)N/C(C)=C\C(=O)c1ccc(C(F)(F)F)cc1	inconclusive: 3.55 µM [inhibitor, partial curve, poor fit]	–
Cc1ccnc(NC(=O)Cc2c(F)cccc2Cl)c1	inconclusive: 17.8 µM [inhibitor, partial curve]	–
Cc1ccccc1/C=N/NC(=O)CSc1nc2ccccc2o1	inconclusive: 35.5 µM [inhibitor, partial curve]	–
CC(C)COC(=O)n1c(SCC(=O)N(C)C)nc2ccccc21	inconclusive: 39.8 µM [inhibitor, single point]	–

SMILES	Potency	activity change, negative = displacement
Cc1ccccc1OCCn1cc(C(=O)c2ccco2)c2ccccc21	inconclusive: 28.2 µM [inhibitor, partial curve]	–
Cc1cc(C)cc(N(C(=O)Cn2nnc3ccccc32)C(C(=O)NCc2ccco2)c2ccncc2)c1 (centres undefined)	inconclusive: 28.2 µM [inhibitor, partial curve]	–
CSc1cccc(CN2CCC(CO)(Cc3ccccc3)CC2)c1	–	inactive: -6.18%
COc1ccccc1C1C(C(=O)c2cc3ccccc3o2)=C(O)C(=O)N1c1cc(C)on1 (centres undefined)	inconclusive: 56.2 µM [inhibitor, single point]	–
CC1(C)C2CCC1(CS(=O)(=O)NCc1ccc(Cl)cc1Cl)C(=O)C2 (centres undefined)	inconclusive: 35.5 µM [inhibitor, single point]	–
O=C(Nc1ccc([N+](=O)[O-])cc1)N1CCc2ccccc2C1	inconclusive: 14.1 µM [inhibitor, partial curve]	–
COc1ccc(N2C(=O)CSC23C(=O)N2c4c(cccc43)C(C)=CC2(C)C)cc1 (centres undefined)	inconclusive: 4.47 µM [inhibitor, full curve]	–
COc1ccc(NC(=O)CC2SC(=N)N(c3ccccc3)C2=O)c(OC)c1 (centres undefined)	inconclusive: 28.2 µM [inhibitor, partial curve]	–
COc1ccc2[nH]c3c(c2c1)CCN1C(=O)N([C@@H](C)C(=O)NCCc2ccc(F)cc2)C(=O)[C@]31C	inconclusive: 10 µM [inhibitor, partial curve]	–
CS(=O)(=O)N(Cc1cc2ccccc2[nH]c1=O)C1CCCCC1	inconclusive: 28.2 µM [inhibitor, partial curve]	–
O=C(Nc1ccc(N2CCCCC2)cc1)c1ccc2ccccc2n1	inconclusive: 14.1 µM [inhibitor, partial curve]	–
CCn1nccc1C(=O)Nc1ccc(C)c(C)c1	inconclusive: 22.4 µM [inhibitor, partial curve]	–
COc1cccc(C(=O)CC2(O)C(=O)N(Cc3ccccc3)c3ccccc32)c1 (centres undefined)	inconclusive: 20 µM [inhibitor, partial curve]	–
CCn1c(SCC(=O)N/N=C/c2ccc(C)o2)nnc1-c1ccc(C(C)(C)C)cc1	inconclusive: 44.7 µM [inhibitor, single point]	–
CCN(CC(=O)Nc1ccc2c(c1)OCCO2)C(=O)c1cccc(OCC(C)C)c1	inconclusive: 39.8 µM [inhibitor, partial curve]	–
Cc1ccccc1C(=O)Nc1sc2c(c1C(=O)N1CCC(C)CC1)CCC(C)C2 (centres undefined)	inconclusive: 4.47 µM [inhibitor, full curve, poor fit]	–
COc1ccc(NC(=O)c2nnn(CC(=O)Nc3ccc(C)c(C)c3)c2N)cc1OC	inconclusive: 3.55 µM [inhibitor, full curve]	–
COc1cccc(Cn2nnc(C(=O)NCc3ccc(Cl)cc3Cl)c2N)c1	inconclusive: 50.1 µM [inhibitor, single point]	–
CCOc1ccc(-n2c(SCc3nc(-c4ccc(C)cc4)no3)nnc2-c2ccncc2)cc1	inconclusive: 35.5 µM [inhibitor, partial curve]	–
Cc1ccccc1CS(=O)(=O)Cc1ccc(C(=O)NCCc2ccc(Cl)cc2)o1	inconclusive: 25.1 µM [inhibitor, partial curve]	–
